# Several values for one entry are separate records, joined by “and”; a condition that tells them apart may be missing. Identical values can stand only once. In all, about 94,000 compounds went through this assay and about 6,200 (6.6%) were called active. This list was built around the results that the source calls inconclusive (neither active nor inactive); the mix of calls is not that of the screen. The call rests on the fitted dose curve; in most records, active means well fitted inhibition curve with a large enough effect; inconclusive means small, poorly fitted or top-dose-only effect; inactive means flat fitted curve, though single readings scatter. A potency beside an inconclusive call is a rough fit, not a confirmed value.
# Experiment: Cytotoxic Profiling in HEK 293 Cell Line of Diverse Libraries Using Quantitative High-Throughput Screening; further: nearly all actives have a fitted effect of over 60% in size
# Conditions: HEK 293 viability, ATP luminescence (CellTiter-Glo), 48-72 h; series mostly up to 115 µM
# Summary of the method: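 Viability of HEK 293 cells, plated at 250 cells/well, was judged by cellular ATP after compound treatment for 48 or 72 hr. Luminescence was imaged 10 min after CellTiter-Glo addition at room temperature.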
# Potency means the concentration at half of the fitted maximal effect; tags describe the fitted curve by direction and shape.
row,Structure (SMILES),Potency
1,Cc1ccc(-n2nc(-c3c(C)nc4scc(CC(=O)NCc5ccccc5)n4c3=O)cc2C)cc1,"inconclusive: 79.4 µM [inhibitor, partial curve, poor fit]"
2,COC[C@@H]1CN(C(=O)c2ccccc2OC)C[C@H]1c1ccccn1,inactive
3,O=C(NC[C@H]1O[C@@H](CO)[C@@H](O)[C@H]1N1CCN(c2ccccn2)CC1)Nc1ccc(F)cc1F,inactive
4,COc1ccc(NC(=O)c2ccc3c(c2)NC(C)(COc2ccc4[nH]ccc4c2)CO3)cn1 (configuration not stated),"inconclusive: 50.1 µM [inhibitor, partial curve, poor fit]"
5,CNC(=O)[C@@H]1CCCN1c1nccc(Nc2ccccc2Cl)n1,"inconclusive: 112 µM [inhibitor, partial curve, poor fit]"
6,NC(=O)C1CCN(c2cc(-c3noc([C@@H]4CCCN4Cc4cccnc4)n3)ccn2)CC1,"inconclusive: 126 µM [inhibitor, partial curve, poor fit]"
7,CCCCn1nc(C2CCOC2)nc1-c1cnc(NC)nc1 (configuration not stated),inactive
8,O=C(c1cc(-c2ccc(F)cc2)nc2ccccc12)N1CCCC(c2nc(C3CCOCC3)no2)C1 (configuration not stated),"inconclusive: 50.1 µM [inhibitor, partial curve, poor fit]"
9,CCN(CC)C(=O)N1CCOC(c2ccc3cc(OC)ccc3c2)C1 (configuration not stated),"inconclusive: 31.6 µM [inhibitor, partial curve, poor fit]"
10,O=C(c1ccc(Cl)cc1)N1CC2(CCCN(Cc3ccccn3)C2)Cc2ccccc21 (configuration not stated),active: 31.6 µM
11,N[C@@H]1CC[C@H](C(=O)N2CCC(Oc3cccc(C(F)(F)F)c3)CC2)C1,active: 44.7 µM
12,O=C(CC1CCCC1)Nc1ccc2ncnc(N3CCCCC3)c2c1,"inconclusive: 39.8 µM [inhibitor, full curve, poor fit]"
13,COc1cncc(Nc2ncc(-c3cccc(F)c3)c3c2OCC3)c1,"inconclusive: 17.8 µM [inhibitor, full curve, poor fit]"
14,Cc1nc(N2CCC(NC(=O)CCC3CCCC3)CC2)cc(C(F)(F)F)n1,"inconclusive: 56.2 µM [inhibitor, partial curve, poor fit]"
15,CN1C[C@@H](NC(=O)c2ccccn2)C[C@H]1c1nc(-c2ccc(OC(F)(F)F)cc2)no1,active: 79.4 µM
16,O=C(C1CCOCC1)N1CCCC2(COc3ccccc3[S+](=O)([O-])N2)C1 (configuration not stated),inactive
17,CN1CCNc2nc(COc3ccc(Cl)cc3)n(Cc3ccccc3)c2C1=O,"inconclusive: 89.1 µM [inhibitor, partial curve, poor fit]"
18,C=CCNC(=O)N[C@H]1[C@H](O)[C@@H](N2CCN(C)CC2)[C@@H]2OC[C@H]1O2,inactive
19,COc1ccc(-c2cccc(C(=O)NCC3CC3)c2)nn1,inactive
20,COc1ccc(Cc2ncc3c(n2)CN(C(=O)c2cc(C)c(C)cc2C)C3)cc1,"inconclusive: 79.4 µM [inhibitor, partial curve, poor fit]"
21,C=CCN1CC(COc2ccccc2)Oc2nc(C)ccc2C1=O (configuration not stated),inactive

row,Structure (SMILES),Potency
1,Cn1nc(C(=O)N2CC[C@H]3C(=O)NCCCCCCN(Cc4ccncc4)[C@@H]3C2)c2ccccc21,"inconclusive: 28.2 µM [inhibitor, partial curve, poor fit]"
2,COc1ccc2c(c1)C(CN1CCN(CC(=O)OC(C)(C)C)CC1)=CC(C)(C)O2,"inconclusive: 79.4 µM [inhibitor, partial curve]"
3,COCCCn1c(C)cc(C(=O)N2CC(c3noc(COc4ccc(F)cc4)n3)C2)c1C,"inconclusive: 89.1 µM [inhibitor, single point]"
4,O=C(NCCN[S+](=O)([O-])c1cccc(C(F)(F)F)c1)c1ccc(-c2cncnc2)cc1,active: 89.1 µM
5,COCC1CN(C2CCC2)CC12CCN(S(=O)(=O)c1cccnc1)CC2 (configuration not stated),"inconclusive: 56.2 µM [inhibitor, partial curve, poor fit]"
6,O=C(NCCc1ccc(Cl)cc1)c1nc(-c2ccc(F)cc2)c2cnccn12,"inconclusive: 22.4 µM [inhibitor, full curve, poor fit]"
7,CCN(Cc1ccccc1)C(=O)CC1CCCCN(Cc2ccccc2)C1=O (configuration not stated),"inconclusive: 79.4 µM [inhibitor, partial curve, poor fit]"
8,COc1ccc(F)cc1-c1ccc(COc2ccc3c(cnn3CCC(=O)O)c2)cc1,"inconclusive: 79.4 µM [inhibitor, partial curve]"
9,Cc1nn(-c2ccccn2)c(C)c1[C@@H]1C=C[C@@H](NC(=O)c2ccco2)C1,"inconclusive: 79.4 µM [inhibitor, partial curve, poor fit]"
10,Nc1ccc2ncnc(N3CCCCC3)c2c1,"inconclusive: 17.8 µM [inhibitor, partial curve, poor fit]"
11,Cc1nn(-c2ccc(F)cc2)c(Oc2ccc(F)cc2F)c1CCC(=O)NC(C)C,"inconclusive: 50.1 µM [inhibitor, partial curve, poor fit]"
12,COc1cccc(CN2CCCCCCNC(=O)CC2c2ccccc2)c1OC (configuration not stated),active: 44.7 µM
13,Cc1nn(-c2ccccc2)c2c1C(C(C)C)N(C1CCCN([S+](=O)([O-])c3cccs3)C1)C2=O (configuration not stated),"inconclusive: 11.2 µM [inhibitor, full curve]"
14,Cc1nn(C)c2nc(-c3ccccn3)nc(NCc3ccc4c(c3)OCO4)c12,active: 31.6 µM
15,O=C(c1ccc2c(c1)ncn2CCO)N1CCCC(CCc2ccccc2F)C1 (configuration not stated),"inconclusive: 89.1 µM [inhibitor, single point]"
16,Cc1cc(-c2nc3ccncc3[nH]2)c(C)o1,"inactive and inconclusive: 141 µM [inhibitor, single point]"
17,Cc1noc2c(NCC3CCOCC3)cc(-c3cccnc3)nc12,inactive
18,CN(C)C[C@@H]1CN(Cc2ccccn2)C[C@H]1NC(=O)c1ccc(Cl)s1,active: 79.4 µM
19,CCn1nc(C)c(CN2CCCC(CNC(=O)c3cccc(OC)c3OC)C2)c1C (configuration not stated),"inconclusive: 56.2 µM [inhibitor, partial curve, poor fit]"
20,COc1ccc(C2(C(=O)N3CCC4(CC3)NCCc3c4[nH]c4ccccc34)CC2)cc1,active: 35.5 µM
21,COc1ccc(NC(=O)Cn2c(N3CCc4ccccc4C3)nc(C)cc2=O)cc1OC,"inconclusive: 79.4 µM [inhibitor, partial curve]"

row,Structure (SMILES),Potency
1,Cc1cccc(N2CCN(c3nccc(-c4ccccn4)n3)CC2)n1,"inconclusive: 89.1 µM [inhibitor, single point]"
2,O=C1CC(c2ccccc2)N(S(=O)(=O)c2ccccc2)CCCCCN1 (configuration not stated),"inconclusive: 10 µM [inhibitor, partial curve, poor fit]"
3,O=C(NCC1CC1)c1cccc(OC2CN(Cc3ccc(F)cc3Cl)C2)c1,"inconclusive: 44.7 µM [inhibitor, partial curve, poor fit]"
4,CCC1=C(C(=O)OC)C(c2cccc(F)c2)N2C(CC(=O)N3CCC(C)CC3)=CSC2=N1 (configuration not stated),"inconclusive: 50.1 µM [inhibitor, partial curve, poor fit]"
5,CCn1nc(C)cc1C(=O)NCc1cccnc1N1CCOCC1,inactive
6,COc1ccc(CC(=O)NC2CCN(c3cc(-c4ccc(Cl)cc4)[nH]n3)C2)cc1OC (configuration not stated),"inconclusive: 39.8 µM [inhibitor, partial curve, poor fit]"
7,CCn1nccc1C(=O)N1CCC2(CC1)NC(=O)N(c1cccc(F)c1)N2,"inconclusive: 39.8 µM [inhibitor, full curve, poor fit]"
8,CCCCN1C(=O)c2ccccc2C(C(=O)NCCc2ccc(OC)cc2)C12CCCCC2 (configuration not stated),"inconclusive: 50.1 µM [inhibitor, partial curve, poor fit]"
9,O=C(c1ccccc1Cl)N1CCC(C(=O)N2CCC(c3ccccc3)CC2)CC1,"inconclusive: 50.1 µM [inhibitor, partial curve, poor fit]"
10,COc1ccc(CNC(=O)C2CN(S(=O)(=O)C3CC3)CC23CCCCC3)cc1 (configuration not stated),"inconclusive: 28.2 µM [inhibitor, full curve, poor fit]"
11,Cc1ccc(NC(=O)Nc2ccc(C)n(CC(=O)N3CCC(C)CC3)c2=O)cc1,"inconclusive: 50.1 µM [inhibitor, partial curve, poor fit]"
12,O=C(NC1CCc2nn(CC3CC3)c(=O)n2CC1)c1ccc2cc[nH]c2c1 (configuration not stated),inactive
13,CN1CCN(c2nc3c(c(=O)[nH]2)CCN(CCc2ccccc2)CC3)CC1,inactive
14,Cc1noc2c(N3CCNC(=O)C3)cc(-c3cccs3)nc12,"inconclusive: 100 µM [inhibitor, partial curve, poor fit]"
15,COc1cccc(-c2noc(CC3CCN(C(=O)c4ccc(OC)cc4C)CC3)n2)c1,"inconclusive: 10 µM [inhibitor, full curve, poor fit]"
16,COc1ccc(CN2CCNc3cc(Nc4ccccc4)ncc3C2)cc1O,active: 100 µM
17,O=C(c1cccnc1)N1CCC(c2cc(-c3ccc(F)cc3)n[nH]2)CC1,"inconclusive: 28.2 µM [inhibitor, full curve]"
18,CN1Cc2ccccc2N(CC(O)COc2ccccc2)CCC1=O (configuration not stated),"inconclusive: 89.1 µM [inhibitor, single point]"
19,CC(C)(C)c1ccc(CN2CC3(COCC2=O)CN(c2cnccn2)C3)cc1,"inconclusive: 112 µM [inhibitor, partial curve, poor fit]"
20,COc1ccc(-c2ccccc2C(=O)N2CCC(NC(=O)c3ccccc3F)CC2)nn1,inactive
